# Test results reported in the supplement of paper PMC8728848.
# The other results are listed elsewhere or left out.
# B1: CLECb-Precomplexed (Mus musculus), P43025 (protein)
# chain: MAKNGLVLCILVVSLLLDQTDGYPSRMKARKHSKRRVKAKDDDLKSQVEKLWREVNALKEMQALQTVCLRGTKVHKKCYLASEGLKHYHEANEDCISKGGTLVVPRNSDEINALRDYGKRSLPGVNDFWLGINDMVTEGKFLDVHGFAVSFLNWDRAQPSGGKRENCVLFSQSAQGKWSDEACRSSKRYICEFIIPTRTRPLEQKLISEEDLAANDILDYKDDDDKV
# Assays:
# Experiment in all cases: glycan array binding signal (z-score within array); higher = stronger binding
# Conditions in all cases: glycan notation: IUPAC condensed, linker removed
# [1] = target: Fuc(a1-2)Gal(b1-4)GlcNAc(b1-3)Gal(b1-4)GlcNAc(b1-2)Man(a1-3)[Fuc(a1-2)Gal(b1-4)GlcNAc(b1-3)Gal(b1-4)GlcNAc(b1-2)Man(a1-6)]Man(b1-4)GlcNAc(b1-4)GlcNAc
# Method in brief: (§1)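 Glycan array data were curated from 3228 arrays in the Consortium for Functional Glycomics database and kept only where the protein sequence was available. Glycan names were converted to IUPAC-condensed notation, and columns mapping to the same glycan were averaged. The binding signal is a within-array Z-score, averaged across arrays of the same protein sequence at different concentrations or buffers and across linkers. Negative Z-scores can be read as non-binding.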
# [2] = target: Fuc(a1-2)Gal(b1-4)GlcNAc(b1-3)Gal(b1-4)GlcNAc(b1-3)Gal(b1-4)GlcNAc
# Method in brief: as §1
# [3] = target: Fuc(a1-2)Gal(b1-4)GlcNAc(b1-3)GalNAc
# Method in brief: as §1
# [4] = target: Fuc(a1-2)Gal(b1-4)GlcNAc(b1-3)[Fuc(a1-2)Gal(b1-4)GlcNAc(b1-6)]GalNAc
# Method in brief: as §1
# [5] = target: Fuc(a1-2)Gal(b1-4)GlcNAc(b1-3)[Fuc(a1-3)[Gal(b1-4)]GlcNAc(b1-6)]Gal(b1-4)Glc
# Method in brief: as §1
# [6] = target: Fuc(a1-2)Gal(b1-4)GlcNAc(b1-6)GalNAc
# Method in brief: as §1
# [7] = target: Fuc(a1-2)Gal(b1-4)GlcNAc6S
# Method in brief: as §1
# [8] = target: Fuc(a1-2)Gal(b1-4)[Fuc(a1-3)]GlcNAc
# Method in brief: as §1
# [9] = target: Fuc(a1-2)Gal(b1-4)[Fuc(a1-3)]GlcNAc(b1-2)Man(a1-3)[Fuc(a1-2)Gal(b1-4)[Fuc(a1-3)]GlcNAc(b1-2)Man(a1-6)]Man(b1-4)GlcNAc(b1-4)[Fuc(a1-6)]GlcNAc
# Method in brief: as §1
# [10] = target: Fuc(a1-2)Gal(b1-4)[Fuc(a1-3)]GlcNAc(b1-2)[Fuc(a1-2)Gal(b1-4)[Fuc(a1-3)]GlcNAc(b1-4)]Man(a1-3)[Fuc(a1-2)Gal(b1-4)[Fuc(a1-3)]GlcNAc(b1-2)Man(a1-6)]Man(b1-4)GlcNAc(b1-4)GlcNAc
# Method in brief: as §1
# [11] = target: Fuc(a1-2)Gal(b1-4)[Fuc(a1-3)]GlcNAc(b1-3)Gal(b1-4)[Fuc(a1-3)]GlcNAc
# Method in brief: as §1
# [12] = target: Fuc(a1-2)Gal(b1-4)[Fuc(a1-3)]GlcNAc(b1-3)Gal(b1-4)[Fuc(a1-3)]GlcNAc(b1-3)Gal(b1-4)[Fuc(a1-3)]GlcNAc
# Method in brief: as §1
# [13] = target: Fuc(a1-2)Gal(b1-4)[Fuc(a1-3)]GlcNAc(b1-3)GalNAc
# Method in brief: as §1
# [14] = target: Fuc(a1-2)Gal(b1-4)[Fuc(a1-3)]GlcNAc(b1-3)[Neu5Ac(a2-6)Gal(b1-4)GlcNAc(b1-6)]Gal(b1-4)Glc
# Method in brief: as §1
# [15] = target: Fuc(a1-2)Gal3S(b1-4)GlcNAc
# Method in brief: as §1
# [16] = target: Fuc(a1-2)Gal6S(b1-3)GlcNAc
# Method in brief: as §1
# [17] = target: Fuc(a1-2)Gal6S(b1-3)GlcNAc6S
# Method in brief: as §1
# [18] = target: Fuc(a1-2)Gal6S(b1-4)Glc
# Method in brief: as §1
# [19] = target: Fuc(a1-2)Gal6S(b1-4)Glc6S
# Method in brief: as §1
# [20] = target: Fuc(a1-2)[Gal(a1-3)]Gal
# Method in brief: as §1
# [21] = target: Fuc(a1-2)[Gal(a1-3)]Gal(b1-3)GalNAc
# Method in brief: as §1
# [22] = target: Fuc(a1-2)[Gal(a1-3)]Gal(b1-3)GalNAc(b1-3)Gal(a1-4)Gal(b1-4)Glc
# Method in brief: as §1
binder,measurement,setting,value
B1,glycan array binding signal (z-score),[1],-0.181
same,glycan array binding signal (z-score),[2],0.219
same,glycan array binding signal (z-score),[3],-0.377
same,glycan array binding signal (z-score),[4],-0.15
same,glycan array binding signal (z-score),[5],0.299
same,glycan array binding signal (z-score),[6],1.06
same,glycan array binding signal (z-score),[7],-0.562
same,glycan array binding signal (z-score),[8],-0.344
same,glycan array binding signal (z-score),[9],0.232
same,glycan array binding signal (z-score),[10],0.036
same,glycan array binding signal (z-score),[11],-0.289
same,glycan array binding signal (z-score),[12],0.457
same,glycan array binding signal (z-score),[13],1.86
same,glycan array binding signal (z-score),[14],-0.551
same,glycan array binding signal (z-score),[15],-0.364
same,glycan array binding signal (z-score),[16],-0.377
same,glycan array binding signal (z-score),[17],-0.075
same,glycan array binding signal (z-score),[18],-0.293
same,glycan array binding signal (z-score),[19],-0.244
same,glycan array binding signal (z-score),[20],0.033
same,glycan array binding signal (z-score),[21],-0.326
same,glycan array binding signal (z-score),[22],0.033
